In patent publication US6534546B1 (Chugai Seiyaku Kabushiki Kaisha, priority 1994, dated 2003):
Structures can show the parent of a compound that is named as a salt. Where two headings read alike, the source gives them in different places.

Tests used:
[1] = biological target: T1, N-cNOS (Type 1) (Rattus norvegicus, UniProt P29476); conditions: for Ratio of IC50 values E-cNOS/N-cNOS / Ratio of IC50 values iNOS/N-cNOS: index of selectivity; for N-cNOS inhibitory potency compared with the existing NOS inhibitors (L-MIN) / selectivity for N-cNOS compared to E-cNOS, compared with the existing NOS inhibitors (L-EIN): conclusion from Tables 49, 50 and 51
[2] = biological target: T1, N-cNOS (Type 1); assay: biochemical

SMILES | Ratio of IC50 values E-cNOS/N-cNOS [1] | IC50 [2] [nM] | N-cNOS inhibitory potency compared with the existing NOS inhibitors (L-MIN) [1] | selectivity for N-cNOS compared to E-cNOS, compared with the existing NOS inhibitors (L-EIN) [1] | Ratio of IC50 values iNOS/N-cNOS [1] | IC50 ([1]; read-out: IC50 value, N-cNOS (Type 1), mean of one to four independent experiments, crude enzyme, 100 nM L-[3H]arginine) [nM]
Cl.NCc1cc(NC(N)=N[N+](=O)[O-])ccc1OCc1ccccc1 [Example 341, N-(2-benzyloxy-5-(N′-nitroguanidino)phenylmethyl)amine hydrochloride] | 5.5 | 160 | – | – | – | –
CCSC(=N)Nc1cccc(CN)c1C.Cl.Cl [Example 131, N-(3-(S-ethylisothioureido)-2-methylphenylmethyl)amine dihydrochloride] | 106.9 | 4.5 | more potent in inhibiting N-cNOS than L-MIN | more selective inhibitory effect on N-cNOS than L-EIN | 17.4 | –
Cl.NC(=N[N+](=O)[O-])Nc1cccc(C2(N)CCCC2)c1 [Example 171, N-(1-(3-(N′-nitroguanidino)phenyl)cyclopentyl)amine hydrochloride] | 5.8 | 5 | more potent in inhibiting N-cNOS than L-MIN | – | – | –
CCN=C(N)Nc1cccc(C2(N)CCCC2)c1 [Example 236, N-(1-(3-(N′-ethylguanidino)phenyl)cyclopentyl)amine dihydrochloride] | 5.7 | 56.8 | – | – | – | –
CCSC(=N)Nc1ccc(F)c(CN)c1.Cl.Cl [Example 317, N-(5-(S-ethylisothioureido)-2-fluorophenylmethyl)amine dihydrochloride] | 19.6 | 12.2 | – | – | – | –
N=C(Nc1cccc(CN)c1)N[N+](=O)[O-] [Example 34, N-(3-(N′-nitroguanidino)phenylmethyl)amine] | – | 281 | – | – | 24.1 | –
CSC(=N)Nc1cccc(C2(N)CCC2)c1.Cl.Cl [Example 160, N-(1-(3-(S-methylisothioureido)phenyl)cyclobutyl)amine dihydrochloride] | 13.0 | 36.6 | – | – | – | –
CCN=C(N)Nc1cccc(CN(C)C)c1.Cl.Cl [Example 374, N-(3-(N′-ethylguanidino)phenylmethyl)dimethylamine dihydrochloride] | 16.7 | 77.1 | – | – | – | –
CCSC(=N)Nc1ccc(C(C)(C)CN)cc1.Cl.Cl [Example 185, N-(2-(4-(S-ethylisothioureido)phenyl)-2-methylpropyl)amine dihydrochloride] | 10.6 | 299 | – | – | – | –
N=C(Nc1cccc(C2(N)CCC2)c1)N[N+](=O)[O-] [Example 173, N-(1-(3-(N′-nitroguanidino)phenyl)cyclobutyl)amine hydrochoride] | – | 8.2 | – | – | – | –
CCSC(=N)Nc1cccc(C(C)N)c1.Cl.Cl (stereo not shown) [Example 175, N-(1-(3-(S-ethylisothioureido)phenyl)ethyl)amine dihydrochloride] | 50.0 | 4 | more potent in inhibiting N-cNOS than L-MIN | more selective inhibitory effect on N-cNOS than L-EIN | – | –
CCSC(=N)Nc1cccc(C(N)CC)c1.Cl.Cl (stereo not shown) [Example 177, N-(1-(3-(S-ethylisothioureido)phenyl)propyl)amine dihydrochloride] | 44.0 | 11.6 | – | – | – | –
CNC(C)c1cccc(NC(=N)SC)c1 (stereo not shown) [Example 110, N-(1-(3-(S-methylisothioureido)phenyl)ethyl)methylamine dihydrochloride] | – | 58.1 | – | – | – | –
N=C(Nc1ccc(CCN)cc1)N[N+](=O)[O-] [Example 54, N-(4-(N′-nitroguanidino)phenylethyl)amine] | – | 67 | – | – | 75.0 | –
CCSC(=N)Nc1ccc(C(CN)C(=O)OC)cc1.Cl.Cl (stereo not shown) [Example 226, 3-amino-2-(4-(S-ethylisothioureido)phenyl)propionic acid methyl ester dihydrochloride] | 24.8 | 57.9 | – | – | – | –
CCSC(=N)Nc1cccc(C(C)(C)N)c1.Cl.Cl [Example 96, N-(1-methyl-1-(3-(S-ethylisothioureido)phenyl)ethyl)amine dihydrochloride] | 94.4 | 2.1 | more potent in inhibiting N-cNOS than L-MIN | more selective inhibitory effect on N-cNOS than L-EIN | 13.6 | –
CCN=C(N)Nc1ccc(CCN)cc1.Cl.Cl [Example 528, N-(2-(4-(N′-ethylguanidino)phenyl)ethyl)amine dihydrochloride] | 19.1 | 22.8 | – | – | – | –
CCSC(=N)Nc1ccc(OCc2ccccc2)c(CN)c1.Cl.Cl [Example 337, N-(2-benzyloxy-5-(S-ethylisothioureido)phenylmethyl)amine dihydrochloride] | 116.1 | 44.8 | – | more selective inhibitory effect on N-cNOS than L-EIN | 345.4 | –
CCOc1ccc(NC(=N)SCC)cc1CN.Cl.Cl [Example 324, N-(2-ethoxy-5-(S-ethylisothioureido)phenylmethyl) amine dihydrochloride] | 480.3 | 4.8 | more potent in inhibiting N-cNOS than L-MIN | more selective inhibitory effect on N-cNOS than L-EIN | 1818.4 | –

SMILES | Ratio of IC50 values E-cNOS/N-cNOS [1] | IC50 [2] [nM] | N-cNOS inhibitory potency compared with the existing NOS inhibitors (L-MIN) [1] | selectivity for N-cNOS compared to E-cNOS, compared with the existing NOS inhibitors (L-EIN) [1] | Ratio of IC50 values iNOS/N-cNOS [1] | IC50 ([1]; read-out: IC50 value, N-cNOS (Type 1), mean of one to four independent experiments, crude enzyme, 100 nM L-[3H]arginine) [nM]
CCSC(N)=NCCC[C@H](N)C(=O)O [L-EIN, S-ethyl-L-thiocitrulline, reference compound] | – | – | – | – | – | 8.4
CCSC(=N)Nc1cccc(CNN)c1.Cl.Cl.Cl [Example 355, 3-(S-ethylisothioureido)phenylmethylhydrazine trihydrochloride] | 14.4 | 46 | – | – | – | –
CCSC(=N)Nc1cccc(CN(C)C)c1 [Example 372, N-(3-(S-ethylisothioureido)phenylmethyl)dimethylamine] | 15.3 | 23.6 | – | – | – | –
CN=C(N)Nc1cccc(CN)c1.Cl.Cl [Example 367, N-(3-(N′-methylguanidino)phenylmethyl)amine dihydrochloride] | 19.2 | 193 | – | – | – | –
CCSC(=N)Nc1ccc(NCc2ccccc2)c(CN)c1.Cl.Cl.Cl [Example 438, N-(2-benzylamino-5-(S-ethylisothioureido)phenylmethyl)amine trihydrochloride] | 168.2 | 41.3 | – | more selective inhibitory effect on N-cNOS than L-EIN | – | –
N=C(Nc1cccc(CN)c1)SCCF [Example 30, N-(3-(S-(2-fluoroethyl)isothioureido)phenylmethyl)amine dihydrochloride] | – | 163 | – | – | – | –
CSC(=N)Nc1cccc(CN)c1.Cl.Cl [Example 26, N-(3-(S-methylisothioureido)phenylmethyl)amine dihydrochloride] | 20.6 | 20.9 | – | – | 64.4 | –
CCSC(=N)Nc1ccc(N(C)CC)c(CN)c1.Cl.Cl.Cl [Example 288, N-(5-(S-ethylisothioureido)-2-(N-ethyl-N-methylamino)phenylmethyl)amine trihydrochloride] | 63.5 | 19.9 | – | – | – | –
CCN=C(N)Nc1cccc(CN)c1Cl.Cl.Cl [Example 538, N-(2-chloro-3-(N′-ethylguanidino)phenylmethyl)amine dihydrochloride] | 104.2 | 24.4 | – | more selective inhibitory effect on N-cNOS than L-EIN | 12.5 | –
CCSC(=N)Nc1cccc(CNC)c1.Cl.Cl [Example 47, N-(3-(S-ethylisothioureido)phenylmethyl)methylamine dihydrochloride] | 8.3 | 8.8 | – | – | – | –
CN(C)Cc1cccc(NC(N)=N[N+](=O)[O-])c1 [Example 39, N-(3-(N′-nitroguanidino)phenylmethyl)dimethylamine acetate] | – | 116 | – | – | – | –
CCN=C(N)Nc1ccc(CC)c(CN)c1.Cl.Cl [Example 466, N-(2-ethyl-5-(N′-ethylguanidino)phenylmethyl)amine dihydrochloride] | – | – | – | more selective inhibitory effect on N-cNOS than L-EIN | – | –
CSC(=N)Nc1cccc(CN(C)C)c1 [Example 41, N-(3-(S-methylisothioureido)phenylmethyl)dimethylamine mononitrate monohydrochloride] | – | 121 | – | – | – | –
CSC(=N)NCCC[C@H](N)C(=O)O [L-MIN, S-methyl-L-thiocitrulline, reference compound] | 26.7 | – | the strongest N-cNOS inhibitory activity in the existing NOS inhibitors | – | 43.4 | –
CCSC(=N)Nc1cccc(C(C)NC)c1 (stereo not shown) [Example 112, N-(1-(3-(S-ethylisothiourido)phenyl)ethyl)methylamine dihydrochloride] | – | 10.8 | – | – | – | –
CCN=C(N)Nc1ccc(C)c(CN)c1.Cl.Cl [Example 473, N-(5-(N′-ethylguanidino)-2-methylphenylmethyl)amine dihydrochloride] | – | – | – | more selective inhibitory effect on N-cNOS than L-EIN | – | –
CCN=C(N)Nc1ccc(OCc2ccccc2)c(CN)c1 [Example 339, N-(2-benzyloxy-5-(N′-ethylguanidino)phenylmethyl)amine dihydrochloride] | – | 281 | – | – | – | –
CCSC(=N)Nc1ccc(OC)c(CN)c1 [Example 122, N-(5-(S-ethylisothioureido)-2-methoxyphenylmethyl)amine dihydrochloride] | – | 3.8 | – | – | – | –
